Data taken from PubChem BioAssay AID488969 (Vanderbilt High Throughput Screening Facility, 2010).
The full ranking holds about 110,000 compounds; the median of “z-score” is about -0.1, and the highest 2% start at about 2. Some of the results follow.

Target: Metabotropic glutamate receptor 8 (Rattus norvegicus) (UniProt P70579)
Test: mGluR8 Gi/Go-coupled signaling modulation – cell-based, rat, thallium flux, HTS, primary screen (AID 488969)
Conditions: HEK293 rat mGluR8, GIRK (G protein-gated inwardly rectifying potassium channel) thallium flux, FluoZin2; at 10 µM; stronger effect = higher value; submaximal glutamate (EC20) added with thallium

Sequence of UniProt P70579 (P70579 whole entry, looked up): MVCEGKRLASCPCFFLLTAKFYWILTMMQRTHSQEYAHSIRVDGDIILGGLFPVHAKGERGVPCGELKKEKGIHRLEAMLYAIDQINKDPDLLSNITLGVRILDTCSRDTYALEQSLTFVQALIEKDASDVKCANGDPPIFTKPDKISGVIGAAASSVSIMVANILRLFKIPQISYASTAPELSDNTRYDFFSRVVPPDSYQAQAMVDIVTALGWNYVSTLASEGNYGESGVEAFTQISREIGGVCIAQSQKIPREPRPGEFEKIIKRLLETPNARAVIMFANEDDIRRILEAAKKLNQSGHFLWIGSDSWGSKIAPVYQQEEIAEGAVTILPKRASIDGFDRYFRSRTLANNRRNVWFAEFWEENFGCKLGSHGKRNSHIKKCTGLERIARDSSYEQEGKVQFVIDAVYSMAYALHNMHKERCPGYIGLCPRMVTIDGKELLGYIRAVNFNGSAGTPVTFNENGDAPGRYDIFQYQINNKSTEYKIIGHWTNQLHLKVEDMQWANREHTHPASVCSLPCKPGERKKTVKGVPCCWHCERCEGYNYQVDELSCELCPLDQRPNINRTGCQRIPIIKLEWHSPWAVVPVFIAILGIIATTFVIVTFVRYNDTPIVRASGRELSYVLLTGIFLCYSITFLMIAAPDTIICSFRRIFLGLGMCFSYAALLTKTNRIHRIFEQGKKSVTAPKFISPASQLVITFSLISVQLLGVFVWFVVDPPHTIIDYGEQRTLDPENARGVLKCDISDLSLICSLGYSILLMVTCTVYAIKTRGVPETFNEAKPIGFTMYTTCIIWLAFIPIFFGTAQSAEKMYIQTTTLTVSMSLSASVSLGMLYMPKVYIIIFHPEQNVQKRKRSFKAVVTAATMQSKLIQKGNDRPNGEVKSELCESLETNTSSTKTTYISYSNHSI

| Structure (SMILES) | z-score |
| --- | --- |
| O=C(NCC1CC1)c1ccc(Nc2nc3ccc(Br)cc3[nH]2)cc1 | -0.393 |
| CCC(C)(C)n1nnnc1C(c1ccccn1)N1CCCCC1 (configuration not stated) | 0.549 |
| CCn1c(C(C)NC(=O)Cc2ccccc2)nc2ccccc21 (configuration not stated) | -0.345 |
| COc1cccc(C(=O)OC2CCCN(C)C2)c1 (configuration not stated) | -0.125 |
| COc1cccc(OC)c1OCCN1CCN(C(=O)c2ccco2)CC1 | 0.173 |
| NC(=O)/C=C\c1cn(-c2ccccc2)nc1-c1ccc2c(c1)OCCO2 | 2.14 |
| O=C(Nc1ccc2oc(-c3cccnc3)nc2c1)c1cc2ccccc2o1 | 0.228 |
| COc1ccc(OC)c(NC(=O)CC2SC(=Nc3ccccc3)N(CCc3ccccn3)C2=O)c1 (configuration not stated) | -0.173 |
| COc1ccc(C)cc1NC(=O)c1nnn(CCc2ccccc2)c1N | -0.27 |
| C=C(C)COc1ccc2oc(C)c(C(=O)OCCOC)c2c1 | -0.598 |
| O=C1C2CC=C(Cl)CC2C(=O)N1CCN1CCOCC1 (configuration not stated) | -0.129 |
| CC1(C)CC(=O)C(C=NCCN2CCN(C(=O)c3ccc(Br)cc3)CC2)=C(O)C1 | -0.23 |
| COCCOC(=O)C1=C(C)N=c2s/c(=C\c3cccs3)c(=O)n2C1c1cccs1 (configuration not stated) | -0.232 |
| CCN1CCN(C(c2cccs2)C(C)NC(=O)c2ccco2)CC1 (configuration not stated) | 0.758 |
| COc1cccc(C(=O)N(Cc2ccccc2)Cc2cc3cc4c(cc3[nH]c2=O)OCCO4)c1 | 0.295 |
| CCSc1nnc(NC(=O)c2cccnc2)s1 | -0.0157 |
| O=C(NCCCN1CCOCC1)c1cc(-c2ccc(F)cc2)on1 | -0.126 |
| O=C(Nc1cccc2cccnc12)C1CCCC1 | -0.134 |
| Cc1nc(SCC(=O)N2c3ccccc3Sc3ccccc32)n[nH]1 | -0.0789 |
| COC(=O)CCN1CCC(C(N)=O)CC1 | -0.109 |
| CCCCCCC(=O)N(O)C1CC(=O)N(c2ccc(C)cc2)C1=O (configuration not stated) | 0.013 |
| C=CCn1c(SCC(=O)Nc2ccccc2)nc2scc(-c3cccs3)c2c1=O | 0.00798 |
| CCc1cccc(CC)c1NC(=O)COn1nnc2ccc(C(F)(F)F)cc21 | -0.14 |

| Structure (SMILES) | z-score |
| --- | --- |
| Cc1cc(C(=O)COC(=O)C2COc3ccccc3O2)c(C)n1CC1CCCO1 (configuration not stated) | -1.82 |
| Cc1ccc(C)c2[nH]c(=O)c(CN(CCN3CCCC3)C(=O)Nc3cccc(Cl)c3)cc12 | 0.666 |
| Cc1nnc(SCC(=O)Nc2ccc3c(c2)COC3=O)n1-c1ccccc1 | 0.767 |
| CCc1ccc(C=NC23CN4CN(CN(C4)C2)C3)s1 | -0.307 |
| COc1ccc(S(=O)(=O)N2CCC(C(=O)NCCc3ccc4c(c3)OCO4)CC2)cc1 | 0.188 |
| C/C(N)=C(/C#N)C(=O)CSc1n[nH]c(-c2ccccc2Br)n1 | -0.0674 |
| Cc1nn(CC(O)c2ccccc2)c(C)c1Br (configuration not stated) | -0.271 |
| O=C1CC(c2ccc3c(c2)OCO3)C2=C(CCCC2=O)N1 (configuration not stated) | -0.2 |
| CCOC(=O)C(Oc1ccc2c(-c3ccccc3)cc(=O)oc2c1C)c1ccccc1 (configuration not stated) | -0.0738 |
| Cc1cc(SCC(=O)Nc2ncc(Cl)cc2Cl)nc2ccccc12 | -0.395 |
| Clc1ccc(Nc2nc(-c3ccncc3)cs2)cc1 | -0.304 |
| CCn1c(SCC(=O)Nc2ccc(C(C)=O)cc2)nc2ccccc21 | 0.352 |
| C/C(=N\N=C1\NC(=O)CC(C(=O)O)S1)c1ccc(F)cc1 (configuration not stated) | -0.169 |
| CCN(C(=O)c1ccco1)c1nnc(-c2ccc(OC)cc2)s1 | -0.125 |
| N#Cc1cc(C(=O)c2cc(Cl)ccc2O)cn(-c2ccccc2)c1=O | -0.35 |
| Cc1cc(C)nc(SC2CCOC2=O)n1 (configuration not stated) | -0.0163 |
| CCC(=O)c1ccc(N2CCN(C(=O)c3cc([N+](=O)[O-])ccc3N3CCN(C)CC3)CC2)c(F)c1 | 1.28 |
| Brc1cc(Br)c2nc(-c3ccc(N4CCOCC4)cc3)ccc2c1 | -0.0727 |
| c1ccc2c(N3CCCCC3)nnc(N3CCCCC3)c2c1 | -0.359 |
| Cc1ccc2c(c1)c(C)c(C)n2CC(O)Cn1nnc2ccccc21 (configuration not stated) | 0.112 |
| Cc1cc2ncn(CC(O)COC3CCCCC3)c2cc1C (configuration not stated) | -0.0556 |
| CCCCCCc1cc2cc(S(=O)(=O)c3ccc(F)cc3)c(=O)oc2cc1O | -0.0939 |
| O=C(Nc1ccc(Br)cc1)c1ccc(N2C(=O)C3CC=CCC3C2=O)cc1 (configuration not stated) | 0.106 |

| Structure (SMILES) | z-score |
| --- | --- |
| FC(F)(F)c1cnc(Oc2ccccc2-c2nnco2)c(Cl)c1 | 0.892 |
| Cc1ccc(NC(=O)/C=C/C(=O)O)c([N+](=O)[O-])c1 | 1.28 |
| Cc1cc(C)c(S(=O)(=O)NCC(=O)O)cc1C | -0.286 |
| CC(C)(C)n1nnnc1CN(Cc1ccc(F)cc1)Cc1ccco1 | -0.212 |
| Cc1ccc(S(=O)(=O)c2c(N)n(Cc3ccco3)c3nc4ccccc4nc23)cc1C | -0.618 |
| COc1ccccc1NC(=O)C(=O)Nc1ccccn1 | 0.41 |
| C/C(=N\S(=O)(=O)c1ccc(C)cc1)Nc1cc(C(C)C)c(O)cc1C | 0.603 |
| CCCCn1nnc(NC(=O)c2ccc(-c3ccccc3)cc2)n1 | -0.666 |
| COc1ccc(-n2ncc3c(=O)n(CC(=O)N4c5ccccc5CC4C)cnc32)cc1 (configuration not stated) | 0.214 |
| Cc1cccc(OCC(=O)O/N=C(\N)c2ccccn2)c1C | -0.113 |
| CCOC(=O)c1c(C)nc2sc(C(N)=O)c(N)c2c1-c1ccc(OC)cc1 | -1.17 |
| CCOC(=O)Cc1ccc2sc(-c3ccccc3)nc2c1 | -0.137 |
| O=C(Nc1nccs1)c1ccc(-c2ccccc2Cl)o1 | -0.107 |
| C=CCc1ccccc1OCCn1ccnc1 | 0.68 |
| COc1ccccc1NC(=O)[C@H](COCc1ccccc1)NC(=O)OC(C)(C)C | 0.143 |
| CC1(C)CC(=O)C2=C(C1)N(CCN1CCOCC1)C1=C(C(=O)CC(C)(C)C1)C2c1cccc(F)c1 | -0.358 |
| CCn1c(O)c2ccc(C(=O)N=NC(=O)c3cccnc3)cc2c1O | -0.168 |
| COC(Cc1nnc(SC)n1-c1ccc(Cl)cc1)OC | 0.0781 |
| COc1ccc(-c2cc(C(=O)N/N=C/c3sccc3C)c3ccccc3n2)c(OC)c1 | 0.0432 |
| Cc1cccc(CC2CC(=O)N(c3ncccn3)C2=O)c1 (configuration not stated) | -0.533 |
| Cc1ccccc1C1C(C#N)=C2NC(=O)c3c(sc4c3CCCCC4)N2C2=C1C(=O)CC(C)(C)C2 (configuration not stated) | 1.56 |
| COC(=O)c1ccc(Cn2c(O)c(N=O)c3ccccc32)o1 | -0.863 |
| COCCn1nnnc1C(c1ccc(OC)c(OC)c1)N1CCN(c2nc3ccccc3s2)CC1 (configuration not stated) | -0.198 |

| Structure (SMILES) | z-score |
| --- | --- |
| Cc1noc(C)c1S(=O)(=O)NCc1ccc2c(c1)OCO2 | -0.235 |
| Cc1nnc(SCC(=O)NC2CC2)n1CCc1ccccc1 | -0.0997 |
| COc1ccc(NS(=O)(=O)c2ccc(C)c(NC(=O)NC3CCCCC3)c2)cc1 | -0.211 |
| CCN(CC)c1ccc2c(Cl)cc(=O)oc2c1 | -0.424 |
| N#CCCS(=O)(=O)c1nnnn1-c1ccccc1 | 0.0771 |
| N#CCN1CCN(CC(=O)Nc2ccc(OCc3ccccc3)cc2)CC1 | -0.0615 |
| Cc1cc2cc(CNC(=O)C3CC3)ccc2n1C | -0.0748 |
| CC(C)C(=O)c1cc2c(cc1NC(=O)c1cccs1)OCCO2 | 0.243 |
| COc1cccc(C2[C@H](C)C3(CCN2C)OCCO3)c1 (some centres not stated) | -0.111 |
| COC(=O)c1ccccc1NC(=O)Oc1ccc(C(C)C)cc1 | 0.456 |
| O=C(CSc1ncnc2c1nnn2Cc1ccccc1F)N1CCN(c2ccccc2)CC1 | -0.298 |
| O=C(CCC1CCCCC1)Nc1ccccc1-c1ccccc1 | 0.0438 |
| O=C(Nc1ccccc1SCC1CSc2nc3ccccc3c(=O)n21)c1ccccc1Cl (configuration not stated) | 0.159 |
| O=C(CCN1C(=O)c2ccccc2C1=O)NCCN1CCOCC1 | 0.325 |
| CCOC(=O)c1cc2c(C)n(-c3ccc(N(C)C)cc3)c(C)c2cc(C(=O)OCC)c1=O | -0.953 |
| COc1ccc(C(=O)OCC(=O)NCc2ccco2)cc1S(=O)(=O)N1CCN(c2cccc(Cl)c2)CC1 | -0.853 |
| CCOC(=O)Cc1csc(NC(=O)c2ccc(Br)o2)n1 | 0.017 |
| CCCCc1ccc(NC(=O)CSCc2cc(=O)[nH][nH]2)cc1 | 0.0665 |
| Cn1c(Oc2ccc(Cl)cc2)c(C=O)c2ccccc21 | -0.356 |
| Nn1c(SCC(=O)N2CCCc3ccccc32)nnc1-c1ccccc1 | -0.699 |
| COc1ccc(OC)c(S(=O)(=O)NC2CCN(Cc3ccccc3)CC2)c1 | -0.569 |
| CCCCC(=O)OCc1cn(-c2ccc(Cl)cc2)nn1 | -0.38 |
| COCc1cc(C)nc2sc(C(=O)NC3CCCCC3)c(N)c12 | -0.0567 |

| Structure (SMILES) | z-score |
| --- | --- |
| Cc1ccc(-c2cc(C(=O)n3cnc4ccccc43)c3ccccc3n2)cc1C | -0.856 |
| Cc1cc(Nc2ccc(Cl)cc2)n(-c2cccc(Cl)c2)n1 | -0.303 |
| COc1cccc(/C=C2\SC(=S)N(CC3CCCO3)C2=O)c1 (configuration not stated) | 1.24 |
| C/C=C(\C)CN1CCN(c2cccc(C)c2C)CC1 | 0.899 |
| COc1ccc(-c2nn(-c3ccccc3)cc2C(=O)OCC(=O)c2ccc(C)c([N+](=O)[O-])c2)cc1 | 0.113 |
| Cc1cc(C)c(S(=O)(=O)N(C2=NCCS2)S(=O)(=O)c2c(C)cc(C)cc2C)c(C)c1 | 0.00982 |
| CS(=O)(=O)N(CC(=O)NCCSCc1cccc(Cl)c1)c1ccc2c(c1)OCO2 | -0.389 |
| O=C(CN1CCN(S(=O)(=O)c2ccc(F)cc2)CC1)Nc1ccc2c(c1)OCO2 | 0.129 |
| COc1cc(C)ccc1OCCCON1C(=O)CCC1=O | 0.122 |
| CCCCNCCOCCOc1ccc(C)cc1[N+](=O)[O-] | 0.181 |
| O=C(COC(=O)c1cc(-c2ccccc2)nc2ccccc12)Nc1ccc2c(c1)OCO2 | -0.372 |
| O=C(NCC1CCCO1)C(c1cccs1)N(C(=O)c1ccc(-c2ccccc2)[nH]1)C1CCCC1 (configuration not stated) | -0.0712 |
| Cc1c(Cl)c([N+](=O)[O-])nn1CC(=O)NC(C)C1CC2CCC1C2 (configuration not stated) | -0.0812 |
| COc1ccc(-c2cc(=O)c3ccccc3s2)cc1 | 0.583 |
| C=CCn1c(N)cc(=O)nc1SCC(=O)Nc1cccc2ccccc12 | -0.25 |
| CCNC(=S)Nc1ccc(OCC)cc1 | -0.0942 |
| O=C(Cc1ccccc1)Nn1cnc2ccccc21 | 0.0614 |
| COc1ccc(NC(=O)c2cccc(-n3cnnn3)c2)cc1 | 0.463 |
| O=C(NCc1cccs1)C1CCCN(c2nc3ccccc3o2)C1 (configuration not stated) | 0.146 |
| O=S(=O)(Nc1ccc2c(c1)CCC2)c1cccs1 | -1.02 |
